Measurements as given in PubChem BioAssay AID624296 (National Center for Advancing Translational Sciences (NCATS), 2012).
In all, about 350,000 compounds went through this assay and about 9,900 (2.8%) were called active. The inconclusive results got no clear call from the source; some entries with a clear call stand among them for comparison. Calls come from the whole dose curve; as a rule, active = well fitted activation curve with a large enough effect; inconclusive = small, poorly fitted or top-dose-only effect; inactive = no such curve, though single readings can be large or run the other way. No potency is given beside an inconclusive call; the fits are too rough.
Potency is the fitted concentration of half-maximal effect; tags give direction and shape of the fitted curve.

Assay: A quantitative high throughput screen for small molecules that induce DNA re-replication in MCF 10a normal breast cells. Note: nearly all actives have a fitted effect of over 50% in size.
Details: MCF 10A DNA re-replication, Hoechst nuclear intensity, 48 h; series mostly up to 46.1 µM
In the case of `COc1ccc(C(=O)Nc2ccc(Oc3nc(C)nc4sc(-c5ccccc5)cc34)cc2)cc1OC`, the Potency is reported as inconclusive [activator, full curve, poor fit]. With `Cc1ccc(C(C)C)c(OCC(=O)NCC(c2cccs2)N2CCOCC2)c1` (stereo unspecified) the Potency was inconclusive [activator, single point]. For `COc1ccc(Cl)cc1NC(=O)C1CC(c2ccccc2O)=NO1` (stereo unspecified), the Potency was inconclusive [activator, partial curve]. For `O=[N+]([O-])c1cc(-c2nnc(Nc3ccc(O)cc3)c3ccccc23)ccc1N1CCOCC1`, the Potency was “inactive”. For `O=C(NC(NC(=S)Nc1ccc(Cl)c(Cl)c1)C(Cl)(Cl)Cl)c1ccco1` (stereo unspecified), the Potency was inconclusive [activator, single point]. For `Cc1c(Cl)cc(C(C)C)c(O)c1CN1CCOCC1`, the Potency was “inactive”. With `CN(Cc1ccccc1)c1ccc2nnc(-c3ccccc3)n2n1` the Potency was inconclusive [activator, full curve, poor fit]. In the case of `Cc1ccc(S(=O)(=O)Nc2cccc3c2O[C@@H](CN(C)C(=O)Nc2ccc4c(c2)OCO4)[C@H](C)CN([C@@H](C)CO)C3=O)cc1`, the Potency is reported as inconclusive [activator, single point]. For `CCN(CC(=O)NC1CCS(=O)(=O)C1)S(=O)(=O)c1ccccc1Cl` (stereo unspecified), the Potency was “inactive”. In the case of `S=C(NCc1ccncc1)Nc1ccc(Cl)c(Cl)c1`, the Potency is reported as inconclusive [activator, partial curve, poor fit]. With `Nn1c(-c2ccc(O)cc2)nnc1-c1ccc(O)cc1` the Potency was “inactive”. With `CC(/C=C1\SC(=O)N(CCCC(=O)O)C1=O)=C\c1ccccc1` the Potency was inconclusive [activator, single point]. For `NC(=O)c1ccc(N2CCCC2)nc1`, the Potency was “inactive”. For `CC(=O)c1nn(-c2cccc(Br)c2)cc1C(=O)c1ccc(Cl)cc1`, the Potency was active: 4.61 µM. For `COc1ccc(-n2cccc2/C=C/[N+](=O)[O-])cc1`, the Potency was active: 14.6 µM. In the case of `COC(=O)C1=C(C)N(Cc2ccccc2)C(=NCCc2cccnc2)N[C@H]1c1ccc(Br)cc1`, the Potency is reported as “inactive”. With `CCNC(=O)c1ccc(C23CC4CC(CC(C4)C2)C3)o1` the Potency was inconclusive [activator, partial curve]. With `CCOC(=O)c1ccc(NC2=CC(=O)C(=O)c3ccccc32)cc1` the Potency was active: 13 µM. For `COc1ccc(CNc2ccc(S(N)(=O)=O)cc2)c(OC)c1OC`, the Potency was “inactive”. For `CC(C)N=C(Nc1cccnc1)c1ccccc1`, the Potency was “inactive”. With `S=c1[nH]nc(-c2ccncc2)n1/N=C/C(Cl)=C\c1ccccc1` the Potency was inconclusive [activator, partial curve, poor fit]. With `O=C(COc1ccccc1C(=O)NCc1ccccn1)Nc1ccc(Br)cc1` the Potency was “inactive”. In the case of `N#Cc1sc2nc(N3CCCCC3)c3c(c2c1N)CCCC3`, the Potency is reported as inconclusive [activator, single point]. For `Cc1ccc(CC(=O)Nc2ccc(S(=O)(=O)N3CCOCC3)cc2)cc1C`, the Potency was “inactive”. In the case of `O=C(NNC(=S)Nc1ccccc1Cl)c1ccccc1`, the Potency is reported as inconclusive [activator, partial curve, poor fit]. In the case of `Cc1noc(C)c1C(=O)Nc1nc(-c2ccc([N+](=O)[O-])cc2)cs1`, the Potency is reported as inconclusive [activator, single point]. For `Cn1cc(C(=O)Nc2ccc(C#N)cc2)c2ccccc2c1=O`, the Potency was “inactive”. For `CC(=O)N1CCc2c(sc(NC(=O)CCS(=O)(=O)c3ccccc3)c2C#N)C1`, the Potency was inconclusive [activator, single point]. For `COc1cc(CNCCCN2CCOCC2)cc(Br)c1OCc1ccc(Cl)cc1`, the Potency was active: 13 µM. With `COc1ccc(C2c3ccc4ccccc4c3Oc3ncn(CCO)c(=N)c32)cc1` (stereo unspecified) the Potency was inconclusive [activator, single point]. With `Cc1sc2nc(COC(=O)c3ccc(N4CCCC(C)C4)c([N+](=O)[O-])c3)[nH]c(=O)c2c1C` (stereo unspecified) the Potency was inconclusive [activator, full curve, poor fit]. For `O=C(O)c1ccc(C2SCC(=O)N2Cc2ccccc2)cc1` (stereo unspecified), the Potency was inconclusive [activator, single point]. For `Cc1ccc(Sc2ncccc2COC(=O)Nc2ccccc2)cc1`, the Potency was active: 18.4 µM. For `C=CCn1c(SCC(=O)NC2CCCCC2)nnc1-c1ccc(OC)cc1`, the Potency was “inactive”. For `CCCCOc1ccc(C2=NNC(=O)CC2)cc1`, the Potency was inconclusive [activator, partial curve, poor fit]. With `COc1ccccc1NC(=O)N1CCN(c2cccc(C(F)(F)F)c2)CC1` the Potency was inconclusive [activator, partial curve, poor fit]. With `CCOc1ccc(-c2nnc3ccc(SCC(=O)N4CCN(c5ccccc5)CC4)nn23)cc1` the Potency was inconclusive [activator, full curve, poor fit]. For `COc1ccc2cc(C#N)c(Cl)nc2c1`, the Potency was inconclusive [activator, partial curve]. With `O=C(COc1ccc(S(=O)(=O)N2CCCC2)cc1)Nc1ccc(F)cc1` the Potency was inconclusive [activator, partial curve]. In the case of `CCCCOP(=O)(OCCCC)C1(NS(=O)(=O)c2ccccc2)C=CC(=O)c2ccccc21` (stereo unspecified), the Potency is reported as inconclusive [activator, single point]. In the case of `O=C(NCC(=O)N(c1cccnc1)C(C(=O)NC1CCCCC1)c1ccccc1F)c1ccco1` (stereo unspecified), the Potency is reported as inconclusive [activator, single point]. With `Cc1cc(NC(=O)CN2C(=O)/C(=C/c3cccc(Br)c3)SC2=S)no1` the Potency was inconclusive [activator, single point]. For `CCC1(C(N)=O)CC2C=CC1C2` (stereo unspecified), the Potency was “inactive”. With `Cc1nc(CS(=O)(=O)c2ccccc2)cc(N2CCOCC2)n1` the Potency was inconclusive [activator, single point]. With `COc1ccccc1N1CCN(C(=O)c2ccc3nc(-c4ccco4)c(-c4ccco4)nc3c2)CC1` the Potency was active: 23.1 µM. In the case of `O=C(Nc1cc(=O)[nH]c(=O)[nH]1)c1cc(Cl)ccc1Cl`, the Potency is reported as inconclusive [activator, partial curve, poor fit]. In the case of `CCN(Cc1ccccc1)c1ccc(/C=C(\C#N)c2ccccn2)cc1`, the Potency is reported as active: 20.6 µM. With `CCOC(=O)c1ccc(N2CC(O)=C(c3nc4ccccc4c(=O)[nH]3)C2=N)cc1` the Potency was active: 20.6 µM. With `Fc1cccc(Cc2noc(CN3CCN(C4CCc5ccccc5C4)CC3)n2)c1` (stereo unspecified) the Potency was inconclusive [activator, single point]. With `CCc1cc(-c2[nH]ncc2-c2ccc3c(c2)OCO3)c(O)cc1O` the Potency was “inactive”. For `Cc1ccc(C(=O)NCCSCc2ccc(Cl)cc2Cl)cc1[N+](=O)[O-]`, the Potency was inconclusive [activator, partial curve, poor fit]. In the case of `COc1ccc(C2Nc3ccccc3C(=O)N2c2ccc(F)cc2)cc1Cn1nnc2ccccc21` (stereo unspecified), the Potency is reported as inconclusive [activator, partial curve, poor fit]. In the case of `O=C(CCCCC(=O)NN=Cc1ccccc1O)NN=Cc1ccccc1O`, the Potency is reported as inconclusive [activator, full curve]. In the case of `O=C(Nc1nnc(-c2ccc3c(c2)CCCC3)o1)c1ccccc1`, the Potency is reported as inconclusive [activator, partial curve, poor fit]. In the case of `CCOC(=O)C1=C(CSc2nc3ccccc3s2)NC(=O)NC1c1cc(C)ccc1C` (stereo unspecified), the Potency is reported as inconclusive [activator, partial curve, poor fit]. In the case of `Cc1oc(-c2ccccc2)cc1C(=O)Nc1cccc2ccccc12`, the Potency is reported as inconclusive [activator, single point]. For `O=C(/C=C/c1ccccc1)N/C(=C/c1ccccc1)C(=O)Nc1ccccc1O`, the Potency was “inactive”. For `CCOc1ccccc1N(C)C(=O)c1cc2c(=O)n(CC)c3ccccc3c2s1`, the Potency was active: 3.66 µM. With `Cc1nc2ccccn2c1C(=O)CSc1ccc(Cl)cc1Cl` the Potency was “inactive”. For `COc1cc(Cl)c(C)cc1NC(=O)c1cccc(OC)c1OC`, the Potency was inconclusive [activator, single point]. In the case of `COc1ccc(NC(=O)C(=O)NCC2CCCN2S(=O)(=O)c2cccs2)cc1` (stereo unspecified), the Potency is reported as active: 6.51 µM. For `CCN(CC)S(=O)(=O)c1ccc(C)c(NC(=O)CNc2cccc(S(=O)(=O)N3CCOCC3)c2)c1`, the Potency was inconclusive [activator, single point]. In the case of `CCCCNC(=O)c1sc(=S)n2c1[nH]c(=O)c1ccccc12`, the Potency is reported as inconclusive [activator, partial curve]. In the case of `Cc1ccc(NC(=O)CN2C(=O)c3ccccc3S2(=O)=O)c(C)c1`, the Potency is reported as “inactive”. In the case of `COC(=O)[C@H]1C[C@H](C(=O)O)[C@@H](C)C1(C)C`, the Potency is reported as “inactive”. In the case of `COc1cc(C(CCN2CCOCC2)c2c(OC)cc(OC)c3c(-c4ccccc4)cc(=O)oc23)cc(OC)c1OC` (stereo unspecified), the Potency is reported as inconclusive [activator, single point]. For `O=C(O)c1ccc(CNS(=O)(=O)c2ccc3ccccc3c2)cc1`, the Potency was “inactive”. In the case of `Cc1noc(C)c1CSc1ccc2ccccc2n1`, the Potency is reported as inconclusive [activator, single point]. In the case of `Cc1ccccc1C(=O)c1cccn1CC(=O)NCCCN1CCc2ccccc2C1`, the Potency is reported as inconclusive [activator, partial curve, poor fit]. With `CCCCn1c(N)c(N(CC)C(=O)c2cccc(OC)c2)c(=O)[nH]c1=O` the Potency was “inactive”. With `COc1ccc(OC)c(NC(=O)CN(c2ccc(OC)c(Cl)c2)S(C)(=O)=O)c1` the Potency was inconclusive [activator, single point].
